Over roughly 33,000 sequences, “E-score (-0.5 to 0.5)” has its median near -0.01; the highest 2% begin near 0.26. Some of the results follow.
What follows are sequences tested against Ste12 (UniProt P13574) (assay: PBM E-score (8-mer binding enrichment) (E-score (-0.5 to 0.5)); higher = stronger / more preferred TF binding; most listed sequences are background and not binding sites). Settings: protein concentration: 200 nM; construct: GST-DNA-binding domain.
How it was run: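 Masliner-normalised scans of fluorescent anti-GST signal were the basis for scoring. That signal came from GST-tagged yeast transcription factors applied at about 100-200 nM to double-stranded universal all-10-mer Agilent arrays on fresh or once-stripped slides. Each ungapped eight-base word, pooled with its reverse complement, received an E-score from the Universal PBM Analysis Suite.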

Sequence | PBM E-score
CCGTAGCA | -0.219
GAACGAAA | 0.177
AGGTTAAC | -0.123
AAGAGTGT | -0.141
CAAGAAGA | 0.0251
AAAACCCG | 0.142
CTATTCAC | 0.0597
TGGTACCA | -0.0698
ACGACATG | -0.088
CAGCAATC | -0.0679
GGGTTAGA | -0.0645
CATCAACG | 0.0777
ACATCACT | 0.00353
GATAGGAC | -0.231
CGCAAGAG | -0.108
GGGGCTAC | -0.0752
ACGGTACT | -0.192
GGATAGAC | -0.108
ACCTACAT | 0.0297
AAGCGATC | -0.148
TAATCCTA | -0.029
AAACACAC | 0.243
AACATGAT | 0.255
CACGAACC | 0.00405
CCCTGCAG | -0.0705

Sequence | PBM E-score
CCTTCACG | -0.0235
GGCCAAGA | -0.112
CGTGAGAG | -0.313
AACTAAGT | 0.0309
ATGTGTCC | -0.019
GGCTGGAA | -0.0751
CGTTTTGC | 0.197
CCAAAGTC | -0.0993
CTGACAGC | 0.0656
GCTGGGGA | -0.114
CTCGCACA | 0.127
GCATTACA | -0.0746
CAAAAACC | 0.128
CATATCTC | 0.0308
GCCGAGAC | -0.168
CACTCCGC | 0.0515
GCACTCCA | -0.161
ACTTTCAG | 0.0489
GGTACGAC | -0.236
CATCCCAA | 0.0892
CAGACAGA | -0.0178
ACGATCAT | -0.0808
GGCTACTA | 0.0888
CTCGATGC | -0.127
CGCGGACC | 0.183

Sequence | PBM E-score
AGTGGATC | 0.0108
ATATGGCG | -0.0265
GGTCAAGA | 0.108
CAGGGTAA | 0.0319
CCTACTAG | -0.113
CAGGATCA | -0.0225
TATGGAAA | 0.292
CGGACATC | -0.251
CGCCGAAA | 0.151
CACGTGAA | -0.104
AGCACACG | -0.153
AAAATAAC | 0.2
CCTTTGTA | -0.0872
CCACTGGG | -0.214
AGGCAATC | -0.136
ACTTTTCA | 0.107
GTCGGCAC | -0.0727
ACGAATGC | -0.0304
AGCCCAAT | -0.139
ATCGCTTG | -0.15
AAGTACGT | -0.0519
CGGGATCA | 0.0733
CGGTTACG | -0.0788
CTCTTCGC | -0.0664
CAGGGGAG | 0.0382

Sequence | PBM E-score
ATTATAGA | -0.00838
CACTTAGG | -0.104
CTACCCAG | -0.0199
CCGCATCC | -0.0589
TAGCCTGA | -0.258
CTGAAGCA | 0.116
ACAAAAGG | -0.156
AGGGTTCC | -0.0756
CCGGCGAC | -0.106
ACAATAAC | 0.176
GCAACTCA | -0.0281
ACGTAATA | 0.164
GGCCCTTA | 0.0462
ATTGGGTA | 0.0325
AATCGCAC | 0.0035
AACACGAT | 0.0313
CCACAGAA | 0.0502
GAAAACGC | -0.195
GGTACATA | 0.151
GATCGATA | 0.0823
ATTTATTC | 0.121
ACTAGAAC | -0.0111
AGGGGGAT | -0.123
GAATTTTA | 0.227
ATGTGAGG | -0.0311

Sequence | PBM E-score
ACTTGCCA | -0.125
CTCATAGC | -0.14
ATCACCGC | 0.106
ACCGAGCA | 0.0351
ACTCGCCA | 0.011
AGAGACTG | -0.121
AGTTAGAT | 0.152
GGAATGCA | 0.088
ACGCGTTA | 0.0388
ACGAGTTG | 0.0536
GTTTATCA | 0.191
GGGCGAAA | 0.0943
CAGAGACC | -0.167
AATAGAAG | 0.0647
TAGCAGGA | -0.0358
AAGTTCTG | -0.0235
ATTCTGCC | 0.136
CTGCTCGC | -0.11
CTGGATAC | 0.0344
CGCGCGGA | 0.0633
CTCGCCTC | -0.259
CTTAGAAA | 0.174
GGTTAGAC | 0.00723
AACCTCGG | 0.0628
AAGCCTGG | -0.0472

Sequence | PBM E-score
CCTGTGGC | -0.225
ATGGATCA | -0.0779
CTGTCCGA | -0.0783
CACAAGAC | 0.00539
AACAGGCT | 0.0552
CATATCCA | -0.0826
CAAATCCC | -0.0801
AGGCCGAC | -0.0167
TTGGCCAA | -0.199
AAGAGTAT | -0.00836
AGCACAGC | -0.0983
TGGCTTAA | 0.0154
AAGGTTCA | -0.103
TCGCTAGA | -0.179
TAACTCTA | 0.0314
GCGCTAGA | -0.0546
CAGAACAC | 0.0346
AATGTAGG | -0.213
CCCTAGAC | -0.268
AGTCCCTG | -0.13
GACTTCGC | 0.0596
CTGTTTGA | 0.308
CGCTGTTC | -0.163
AGCTGTGG | -0.185
GTAAAAAC | 0.206

Sequence | PBM E-score
GCTCCCTA | -0.324
CCTAAACG | -0.0242
GCTCGGAA | -0.0316
ACCGAACG | 0.136
GCGCGAAA | 0.182
AGGCTACG | -0.335
AGTTTTAA | 0.212
CCGCCACC | -0.0396
ACTCTGCG | -0.108
ATAGCGCG | 0.0761
ACACTCTG | 0.0807
CAACAAAC | 0.176
GTGCACAC | -0.245
TAGCCCAA | 0.00889
GAACTATC | -0.134
CAGAACCG | 0.0887
CTAATCCA | 0.182
ACTGTCCT | -0.109
AATTTCGG | 0.103
AAATTTTG | 0.0681
AGCACTGC | -0.236
AAGTCAGC | -0.0212
ATTGCCAG | 0.206
AATACCAC | 0.17
GCATAAGA | 0.143

Sequence | PBM E-score
CTCTGGAC | -0.0978
CTCGGCTA | -0.0609
ATAGTACC | 0.0385
AGACTCGA | -0.177
ATTTGGCG | 0.114
GGTACCAC | -0.156
ACAGTGAC | -0.0416
CATCGGCG | -0.127
CGTCAATA | -0.119
ATGCGGAC | -0.0592
CTGGTACC | -0.229
TTCGCCAA | 0.0233
GCTTCTCC | -0.05
AGATGGCA | -0.183
ACCTGAGC | 0.00116
ACTCAGAT | -0.019
ACGATTAA | -0.00828
TCCGCGCA | -0.0831
AAAGGTGG | -0.0755
ACGGCCTA | -0.0653
CGGTGCCA | -0.166
AACTATCA | 0.262
CTGCGCGC | 0.188
GTATTACA | 0.0248
AAAGCCCG | -0.066

Sequence | PBM E-score
AACAAGAA | 0.253
AGTGGATG | -0.06
ACAGACCC | -0.0793
TACCTGAA | 0.0834
AACATTCG | 0.0163
AATTACCG | 0.175
GTTCAGAA | -0.0378
AGCAAGAT | 0.0955
AACGGGTC | -0.133
CTCCCTTC | -0.243
CTCTTGAC | -0.0383
GTTTTGTA | 0.177
GACGCGAC | -0.101
ACCCGACT | 0.118
GCGAATCC | -0.2
AAGCCGAG | -0.0256
ACGAGAGG | -0.0229
TACTTCTA | -0.043
AATACAGA | -0.0373
CGTACATA | -0.0333
GGCTGACA | -0.0506
CATTCGGC | 0.0357
AGCGGTCA | 0.0199
TCTATTCA | 0.128
CACCACTG | -0.124

Sequence | PBM E-score
ATCGACGA | -0.274
CCGACTAC | -0.0266
CAGGTCCA | -0.0704
CTTGCGCC | -0.0959
ACGAAGCG | -0.00271
GGTAGACC | -0.234
GTGACCGA | -0.0479
GACCGACC | -0.0593
CAAAGTGG | -0.131
AGTACGTA | -0.141
GTTCGTGA | -0.141
AAGAGGCC | -0.0915
AGCGCCCT | -0.0523
CAAACGAG | 0.0954
ATATTGAA | 0.223
AATCATAG | 0.177
CAACAGCA | 0.021
ACCTTCGC | -0.0766
CAGCGGAG | -0.0485
GACCGGAC | -0.156
CTCTAATC | 0.0231
CACGAGTC | -0.134
ATTCTTTG | 0.218
ATTAAGGA | 0.0696
AGCTGCGA | -0.0245

Sequence | PBM E-score
GCCATTCA | 0.0323
GCTGATGA | 0.126
CCAGGGAC | -0.203
ATGTCTTC | -0.188
ACCCAAAC | 0.285
ATCCCCAC | 0.184
CTAGTGAA | 0.0857
AACCGTGA | -0.167
ACACACGC | 0.107
CGCCAAGC | -0.0963
ACCTCGCA | 0.0132
AACAGCAA | 0.11
AAGGAGTG | 0.0148
ATGTACCG | 0.0747
ACCAATAT | 0.163
CAGACTAA | 0.0635
CGGCTCTA | 0.012
AGTACGCA | -0.183
AAGAGACG | 0.0312
CTCAGAAA | 0.122
CTTACCCC | 0.0457
ACTTGTTG | -0.16
AGGTCTTA | -0.101
ATGTAAAG | 0.0258
CAGCATAG | -0.0347

Sequence | PBM E-score
CAGAGTCG | -0.0225
CGCCATAG | -0.0565
ATAGCACC | -0.16
CGGCCATA | -0.116
ACGCAATG | -0.0869
CTCGGCGC | 0.242
CACGGTGA | -0.107
GAGACCTC | -0.0791
CGCGGGGA | 0.333
ACCCGTAA | -0.0722
CCCTCGAC | -0.118
AATACTAT | 0.0118
GTCATTCA | 0.0289
GCAAAACA | 0.154
GTACGTAC | -0.194
GAGCCTTA | -0.047
GACTTGGC | -0.148
ATGACAAG | -0.0485
CGTCGGCC | -0.127
CATGACGC | -0.0125
ACTTCTGC | -0.143
ATTATGGG | 0.121
GTCTGCTA | -0.171
CCCCCTCG | -0.191
CAAGACCA | -0.113

Sequence | PBM E-score
ATAGAATA | 0.123
AAGGAGGC | -0.237
AGAGATAC | -0.0146
AGGGTGTC | -0.0908
CAGGAGAG | -0.0564
CCAAGAGG | -0.25
AGAGCAAA | 0.14
CTGCAACA | 0.149
CCTGTGTA | -0.124
ATCTATCA | 0.172
AAGATATA | 0.199
ATCATACC | 0.128
GAAGGCGA | -0.16
GACATGTC | -0.268
ACCCGGAC | -0.0992
AAAAAACA | 0.331
ATTATCTA | 0.0945
GTTATGCA | -0.0887
GGCTACCC | -0.285
GGATCCGA | -0.195
AAGAAACG | 0.148
TCAGTCGA | -0.0156
CCTGAGAA | -0.0164
CCCGTGTA | -0.121
CAGAGCGG | -0.0476

Sequence | PBM E-score
CCTGCCTA | -0.18
AGTTGTTG | -0.0162
ATATACTA | 0.191
ACCTCATC | -0.0717
CGGGCTTA | 0.0808
CGGACCCG | 0.0446
CTACCATC | -0.179
AGAGCTTA | -0.0314
ATCTCATA | -0.00101
CCCGGAAC | 0.0442
AACTGTAA | 0.328
GAGGCCGC | -0.275
GCTGCACC | -0.116
CGCATTAC | -0.0621
CGTTCGGC | -0.156
AGTATATC | -0.0122
ATGTAGGA | -0.118
CGGTTTTC | 0.166
ATCGACAT | -0.032

— the supplement of paper PMC3334620
